In publication PMC12136788:
Some of the results follow.

T1: UNK ZnF1-3 (human, UniProt Q9C0B0 31-174)
T1 sequence: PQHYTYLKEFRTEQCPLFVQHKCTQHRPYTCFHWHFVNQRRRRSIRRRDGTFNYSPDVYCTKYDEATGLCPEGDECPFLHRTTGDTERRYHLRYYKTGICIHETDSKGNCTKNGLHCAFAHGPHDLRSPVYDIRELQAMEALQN

B1: chr1:58468927:58468928:-_ENSMUSG00000026034_ENSMUST00000148330|mus_mus|mus_mus_mus_hu_False|18_58 (ssRNA)
RNA: GGGAGUUCUACAGUCCGACGAUCAAUUACUGAAAAAGAUGUUCAUUACCUUAGCUAUGUACUUAAUGAACCAAAUUAUCUAAAAAAAAUAAACAUGGCAAUAUAAAAAUGUUAAGAAAAUAACUUACUGUACAAAAUAACUUACAACAGAGGAUUGAGCAUCA
B2: chr10:85910540:85910541:+_ENSG00000165678_ENST00000372134|perfect_dup|motif|central (ssRNA)
RNA: GGGAGUUCUACAGUCCGACGAUCUUCUGCACGUUUGAUUACUUUCUGAGUAUCAUACAGAAGGAACAUGCUGAAAAGAACGGAUCCACCAUACAUUGCCACUGAGUACAGAGUGGCACCAGCCACAGAGGUAGGGGGAAGAAACAACAGAGGAUUGAGCAUCA
B3: 37302204_37304280_796_CDS_ENSG00000147905_ENST00000336755|human|control|control (ssRNA)
RNA: GGGAGUUCUACAGUCCGACGAUCACCACGUUUGUCACAAUUUCUACAGAUAAUGUUUUUGUUGGCUGAAUAGUACCGCUGGGUCCAUCUUCCAGGUGUUCGGUUAUUAGCUAUCUGGGCCUCAAUGUCUUUGUCACUGAUGGACAACAGAGGAUUGAGCAUCA
B4: chr17:74699132:74699133:-_ENSMUSG00000024067_ENSMUST00000112571|perfect_dup|motif|central (ssRNA)
RNA: GGGAGUUCUACAGUCCGACGAUCCCCAAGAAAUCAAUUUCGAUCUUCAAACUGCGCCUUGUUUUUUAAAAGAUAAGAUGCGGGGAACUCGAUGGGAUUUGGUGGUCUUUCCUUGGCAAGCACAGCAAGUCCCUGUAAUAAGAUCAACAGAGGAUUGAGCAUCA
B5: 7509219_7509339_2688_CDS_ENSMUSG00000031161_ENSMUST00000115642|mouse|control|control (ssRNA)
RNA: GGGAGUUCUACAGUCCGACGAUCAUGGACUUGGAUGACCUCACUGAUUGAAACCAGGGCUCCUGACUGUGGCGGUCGCAGCAAAGUAAGCUGGGGUGGUGGGUCUCCAAGGAGGGAAUGGGUGCAGGCAGCCAUAGACUCAGACAACAGAGGAUUGAGCAUCA
B6: chr10:18963012:18963013:+_ENSG00000165997_ENST00000377275|hu_mus|FALSE|FALSE (ssRNA)
RNA: GGGAGUUCUACAGUCCGACGAUCCCCUUCUCCUGUGAGCGCACAGCACGACUGGAUGUGCCACGGGUGGUCCUUGAUUGAACUUAGGGUGAGGUAUUUGGAGAUUUCAGCUGCUGUCAUGCACCCUUUCAUAUCCUGUUUAUUCAACAGAGGAUUGAGCAUCA
B7: chr1:157130520:157130521:-_ENSMUSG00000026469_ENSMUST00000027741|mus_mus|FALSE|FALSE (ssRNA)
RNA: GGGAGUUCUACAGUCCGACGAUCCGCGUUGAGGGGGGCCACAGAGAUGUCCCGCACGGCUCGGAAUUCACCACAGUUAUUUAGAUGCUCGUUCUCCAGACGGAAGAAGUUCCACACAAAUCGCCGGAAAACCUCAAGGGGGGCCAACAGAGGAUUGAGCAUCA
B8: chr1:231410971:231410972:+_ENSG00000116906_ENST00000366647|hu_hu|FALSE|FALSE (ssRNA)
RNA: GGGAGUUCUACAGUCCGACGAUCCAAAAGGUACUUGCAAAUUAUCUGAUAGCUUUCCACAAAAGGUUUAAAGAGUCCUACUAAAAAUUCUAACACAGUAUUUCCUUUCUCUGUAACUAGGAUGUCUUUCGUAGUCACUUGUAUCAACAGAGGAUUGAGCAUCA
B9: chr3:3214544:3214545:-_ENSG00000113851_ENST00000231948|hu_mus|FALSE|FALSE (ssRNA)
RNA: GGGAGUUCUACAGUCCGACGAUCCUUGAACCGCUGCCUUCCAAUUGCUUUCACUUUCACUACUUCAAUUCCAAACUCCUGCUCUUCUCGAUAGGCAUAGAUCUCUGCUGUUGUCCCAAACUGUGCUUCCCUUUCUUGCACAUUCAACAGAGGAUUGAGCAUCA
B10: chr12:48362563:48362564:+_ENSG00000134291_ENST00000256686|hu_hu|hu_hu_hu_mus_False|18_48 (ssRNA)
RNA: GGGAGUUCUACAGUCCGACGAUCUCCGUCAAGCCCUUCGAUAGACCCUUGCGGGGGAAACUGUAAUCACUUUGUAUGGGGAAGGAAAAAAAAAGCCAAAAACUUUCCAAAAAGCGGUUCAAAAAGCAGGCGGGAGGGGGAGGUCAACAGAGGAUUGAGCAUCA
B11: chr1:51737530:51737531:+_ENSG00000123091_ENST00000242719|perfect_dup|motif|central (ssRNA)
RNA: GGGAGUUCUACAGUCCGACGAUCACUGGUUUUCAAGCAUAGAGCCAGCCCCAACGAUAAUAAUACACUAUUUAAAAAGACCGGAGGCAAUGAAUUCCAUUUCCAAUGGAAAAAAAGAACUGUGCAAACAAGCUUAAAACUACUCAACAGAGGAUUGAGCAUCA
B12: chr7:108137184:108137185:-_ENSG00000135241_ENST00000257694|hu_hu|FALSE|FALSE (ssRNA)
RNA: GGGAGUUCUACAGUCCGACGAUCUCGAUAAAGUUCCUCACAUUCAUCCAAGGGCAUAUGAAACAACCCCAACAUGAAAGCUAAUAUGGCACCUGUGCUUACACCACAAAUGUAAUCAAAGAGCUGAUGAACUGGCUUCUGAGUCAACAGAGGAUUGAGCAUCA
B13: 180423776_180423896_799_CDS_ENSMUSG00000038914_ENSMUST00000103055|mouse|control|control (ssRNA)
RNA: GGGAGUUCUACAGUCCGACGAUCAGAAUCUUCCUCUCUGCGCUUCUUCCUCAGGCGAUUCUGACUGCCUCUCAGGGACCUCUCCACAGGUUCUUGCUCUCGCUUUCUCCGAAGGCGGUUCUGAAGUUCCUUCAACGUAAGGCCCAACAGAGGAUUGAGCAUCA
B14: chr17:56167648:56167649:+_ENSG00000264364_ENST00000579991|hu_hu|FALSE|FALSE (ssRNA)
RNA: GGGAGUUCUACAGUCCGACGAUCGAUAUCCCCAGAGGCUUUUAGCAUAAAAGCCCACUUAGAACUAACUGUGCCCCCUACCUACCCAUACACCCUAGAGAUUCCACACUGUCCUGCCCCCUCCCUCCCUUCUACCCCAAACCCCAACAGAGGAUUGAGCAUCA
B15: chr7:65705844:65705845:+_ENSG00000169902_ENST00000304842|hu_mus|hu_hu_hu_mus_False|28_68 (ssRNA)
RNA: GGGAGUUCUACAGUCCGACGAUCAAACGGAUCUUUGUUACAUAAAUAAGGUGCCGGCUCCCCAUGUUUAACGAUAACCUCCAGAAGGAAGGCUUGCAUGGCAGAAUCCAGCACUUCAUCUGUGACACCCGCCUCAUCCAAGCGCAACAGAGGAUUGAGCAUCA
B16: 71693611_71693731_815_CDS_ENSG00000132463_ENST00000545193|human|control|control (ssRNA)
RNA: GGGAGUUCUACAGUCCGACGAUCCUCAUUUACUUCAUGUUCUUCAAAGACCAUUUCUGGCUCAGUUAUAUACUUAGCAGUAGGAAAAGAUGCGAUUUUCUUUCCCUUAUAAGAACCGACAUGUGUUCGAACUUCAUUCCUUCUCAACAGAGGAUUGAGCAUCA
B17: chr4:131761308:131761309:-_ENSMUSG00000040025_ENSMUST00000102570|mus_hu|motif|central (ssRNA)
RNA: GGGAGUUCUACAGUCCGACGAUCAGCUGACUGUCCAUCAAUCAUGGCUCCACCUAAGGAGCUAGGUGCAUAAGCAUAAUUGCGGCGGUAUCCAGAGCUCUGAGUAGACUGUCCCUGAGAACUGUUAUUUCCCCAUGCUGAGAACAACAGAGGAUUGAGCAUCA
B18: chr8:92086081:92086082:+_ENSG00000155100_ENST00000285420|hu_hu|motif|central (ssRNA)
RNA: GGGAGUUCUACAGUCCGACGAUCUAUCCGAGGUGGCUGAUUCUCAAGCACCAAGUUUGAAAUGUUAACAGCAACAGAAUCGGUCUUAUUCUCCUUAGUAGUCAGCUUCAAUUGCUCCAGUUCCUCUCUAUGUUUCUGUUCCAUCAACAGAGGAUUGAGCAUCA
B19: chr16:30615004:30615005:-_ENSG00000156853_ENST00000287461|hu_hu|FALSE|FALSE (ssRNA)
RNA: GGGAGUUCUACAGUCCGACGAUCUGCUACUUAACCUGAAAACUUGGGGGCAAAGUGGUUGUGAUUAUCUGAAGGGCUGCUAUGUAGAUGAAGUAUUAAACAUGUCGUAGGCAAGGUUUAGAGGAGAAUGUGGUACUUAACCUUCAACAGAGGAUUGAGCAUCA
B20: chr7:140404665:140404666:+_ENSG00000090266_ENST00000247866|hu_hu|hu_hu_hu_mus_False|78_88 (ssRNA)
RNA: GGGAGUUCUACAGUCCGACGAUCUGCUCCUACUCGUCCAGAGAGUUUACACCUUCAGUCUUCAUCAUCAGGAGGGAUUCCCAGUUCUUCAUCUGUCCACUGUGAAGGAUCUGGAUAUGAAAAGUGACCCAGCACAGCAUCCGACAACAGAGGAUUGAGCAUCA
B21: chr1:60041781:60041782:+_ENSMUSG00000041040_ENSMUST00000036540|mus_hu|mus_mus_mus_hu_False|38_88 (ssRNA)
RNA: GGGAGUUCUACAGUCCGACGAUCAAGUUUACAAUAGUAAAGUAAAUCAAAUUUAGUCAAAUUUUCUUUUAUUUUCCUUCACAAAAGAAAAUCUUUAGAUCUCAGUUCUAGUCUUGGACAUAGUGAAAGCUAUAAAUUCUGACUCAACAGAGGAUUGAGCAUCA
B22: chr3:119450855:119450856:-_ENSMUSG00000028134_ENSMUST00000029780|mus_hu|mus_mus_mus_hu_False|8_78 (ssRNA)
RNA: GGGAGUUCUACAGUCCGACGAUCUGUGGUGCCACUAAGAGGAGUAUUUGCUGUCUGGACCGCUGUCACAGCUUGAAGAACUGCCUGAGCACGUUGGUUUAAUGUAUUAUCUGUCUUUAGUUCUUUGUGAUUGGAGUACUGGAUCAACAGAGGAUUGAGCAUCA

These binders were tested against T1, UNK ZnF1-3 (assay: nsRBNS (natural sequence RNA bind-n-seq); RBNS binding buffer (assumed for nsRBNS): 25 mM Tris pH 7.5, 150 mM KCl, 3 mM MgCl2, 0.01% Triton X-100, 500 ug/ml BSA, 20 U/ml SUPERase-In, 4 C; UNK is unkempt and MSI1 is Musashi-1; names of the RNAs are library labels; protein concentration not given here; high values mean tight binding).
In the case of B1, the binding signal is reported as 0.613 enrichment R.
Binder B2 has a binding signal of 1.57 enrichment R.
With B3 the binding signal was 0.593 enrichment R.
B4 was tested, and the binding signal was 0.979 enrichment R.
B5 was tested, and the binding signal was 1.56 enrichment R.
Work on B6 yielded a binding signal of 0.658 enrichment R.
Binder B7 has a binding signal of 1.4 enrichment R.
B8 was tested, and the binding signal was 0.638 enrichment R.
In the case of B9, the binding signal is reported as 0.543 enrichment R.
Binder B10 has a binding signal of 2.27 enrichment R.
For B11, the binding signal was 1.38 enrichment R.
For B12, the binding signal was 1.11 enrichment R.
B13 gave a binding signal of 0.563 enrichment R.
Work on B14 yielded a binding signal of 2.77 enrichment R.
B15 showed a binding signal of 0.275 enrichment R.
B16 showed a binding signal of 0.583 enrichment R.
B17 showed a binding signal of 1.07 enrichment R.
B18 gave a binding signal of 1.13 enrichment R.
B19 gave a binding signal of 2 enrichment R.
Work on B20 yielded a binding signal of 1.19 enrichment R.
With B21 the binding signal was 0.4 enrichment R.
B22 was tested, and the binding signal was 0.875 enrichment R.
